Reference: PMC4336329 (PLoS ONE, 2015)
About 14,000 (4.5%) of roughly 310,000 compounds showed an effect of 50% or more. The effect is printed as a negative number. The list shows a part of the results.

Target: human ether-à-go-go-related gene (hERG) potassium channel (human, UniProt Q12809)
Assay: primary screen, population patch clamp on CHO cells stably expressing hERG
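Further: peak tail current of the secondary pulse compared with the same well before compound.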

Sequence of human ether-à-go-go-related gene (hERG) potassium channel (Q12809 whole entry, looked up): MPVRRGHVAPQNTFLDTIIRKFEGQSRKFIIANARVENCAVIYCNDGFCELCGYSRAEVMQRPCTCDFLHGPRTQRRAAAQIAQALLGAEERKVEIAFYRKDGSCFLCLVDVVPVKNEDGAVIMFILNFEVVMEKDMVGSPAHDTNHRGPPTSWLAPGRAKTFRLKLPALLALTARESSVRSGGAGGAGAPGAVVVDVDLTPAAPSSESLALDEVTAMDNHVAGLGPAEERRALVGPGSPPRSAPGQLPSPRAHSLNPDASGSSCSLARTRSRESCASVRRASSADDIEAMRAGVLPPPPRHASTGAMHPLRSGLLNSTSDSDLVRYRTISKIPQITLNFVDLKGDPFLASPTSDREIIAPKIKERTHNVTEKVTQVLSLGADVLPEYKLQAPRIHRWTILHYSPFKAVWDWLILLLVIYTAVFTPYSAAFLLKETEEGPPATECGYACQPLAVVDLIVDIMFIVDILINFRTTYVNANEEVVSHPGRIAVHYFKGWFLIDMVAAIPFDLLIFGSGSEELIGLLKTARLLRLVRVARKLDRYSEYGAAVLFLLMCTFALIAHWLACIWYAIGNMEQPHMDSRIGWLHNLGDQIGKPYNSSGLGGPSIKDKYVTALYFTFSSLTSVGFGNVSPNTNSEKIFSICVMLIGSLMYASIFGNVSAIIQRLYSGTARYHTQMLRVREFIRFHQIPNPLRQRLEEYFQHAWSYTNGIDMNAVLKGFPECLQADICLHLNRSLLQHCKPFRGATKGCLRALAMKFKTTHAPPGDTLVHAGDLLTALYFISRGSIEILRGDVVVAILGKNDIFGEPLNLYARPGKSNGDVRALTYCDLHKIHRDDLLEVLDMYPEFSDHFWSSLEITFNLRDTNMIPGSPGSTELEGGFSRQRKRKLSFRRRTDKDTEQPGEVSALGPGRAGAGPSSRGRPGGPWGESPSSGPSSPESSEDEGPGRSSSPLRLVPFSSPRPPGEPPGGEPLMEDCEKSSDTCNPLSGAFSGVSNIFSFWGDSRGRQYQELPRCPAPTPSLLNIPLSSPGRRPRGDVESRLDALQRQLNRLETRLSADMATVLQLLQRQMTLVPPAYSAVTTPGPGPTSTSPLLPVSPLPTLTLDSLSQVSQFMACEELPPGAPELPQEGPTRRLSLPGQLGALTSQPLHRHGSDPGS

| Compound | hERG current change (%, negative = inhibition) at 10uM [%] |
| --- | --- |
| COC(=O)C1=C(C)NC(=S)NC1c1ccc(-c2cc(Cl)ccc2Cl)o1 (stereo not drawn) | -19.2 |
| CC(C)c1ccc(NC2CCCN(C(=O)CCc3cn[nH]c3)C2)cc1 (stereo not drawn) | 0.18 |
| O=C(COc1ccc(Cl)cc1)N(Cc1ccccc1)c1nc(-c2ccccc2)cs1 | 2.46 |
| Cc1cc(C)n2c(Nc3ccc4c(c3)OCCO4)c(-c3ccccc3)nc2n1 | -16.7 |
| O=C1C2CC=CCC2C(=O)N1Cc1nnc(-c2ccccc2Br)o1 (stereo not drawn) | -4.97 |
| N#CC1=C(N)Oc2n[nH]c(-c3cccnc3)c2C1c1cc(F)ccc1F (stereo not drawn) | 11.2 |
| COc1cc(NC(=S)NCCCO)c(OC)cc1Cl | 20.2 |
| Cl.O=C(Nc1ccccc1)N1CCNCC1 | 14 |
| COc1cccc(Oc2cc(NN3CCCCC3)c([N+](=O)[O-])cc2[N+](=O)[O-])c1OC | 7.27 |
| Cc1c(Cc2ccccc2)c(=O)oc2c(C)c(OCC(=O)Nc3ccc(C#N)cc3)ccc12 | 1.64 |
| COc1ccc(CCNCC(=O)Nc2ccc(C(=O)N3CCCCC3)cc2)cc1.O=C(O)C(=O)O | 4.75 |
| CCn1nc(NS(=O)(=O)c2ccccc2)c2cc3cc(C)ccc3nc21 | 3.38 |
| O=C(COC(=O)c1ccccc1F)Nc1cccnc1Cl | -2.16 |
| COc1cccc(NC(=S)N2CCN(c3ccccn3)CC2)c1 | 6.36 |
| Cc1nc(-c2ccc(NC(=O)c3cccs3)cc2)cs1 | -1.97 |
| O=C(Cn1ccc2cc(S(=O)(=O)N3CCCCC3)ccc21)NCc1ccccc1F | -3.7 |
| COc1ccc(C(=O)Nc2ccc(Cl)cc2F)cc1S(=O)(=O)N1CCCC1 | -48.1 |
| CCN(CC)CC(=O)Nc1ccc(-c2nc3cc(NC(=O)CN(CC)CC)ccc3o2)cc1 | -18.1 |
| O=C(CN1CCCC1)Nc1ccccc1C(=O)c1ccccc1 | -2.59 |
| CCOC(=O)C1=C(C)N(C)C(=O)C1CC(=O)O (stereo not drawn) | 19.4 |
| Cc1ccc(NC(=O)CSc2nnc(NC(=O)C(C)C)s2)c(C)c1 | 5.81 |
| N#Cc1ccccc1Oc1ccccc1C=O | -16.8 |
| CCC(C)c1ccc(NC(=O)C2=CC=CN3CCS(=O)(=O)N=C23)cc1 (stereo not drawn) | -9.25 |
| Cc1ccc(/C=N\NC(=O)C2COc3cc4ccccc4cc3O2)o1 (stereo not drawn) | -5.12 |
